# Measured values from PubChem BioAssay (Tox21).
# Several values for one entry are separate records, joined by “and”; a condition that tells them apart may be missing. Equal values may be shown once. Inconclusive results, whose numbers are uncertain, are shown with a selection of clear calls. For some of these results: Potencies of inconclusive entries are doubtful fits and often do not repeat. Activity calls are given as the source filed them. Unless noted, calls follow the shape of the dose curve; as a rule, active = well fitted curve in the direction sought with a large enough effect in the repeat runs; inconclusive = weak or mixed curves; inactive = no such curve, though single readings can be large; an effect the other way counts as inactive or inconclusive.
# Assays:
# [1] = qHTS RealTime-Glo MT Cell Viability Assay in HEK293 cells - 24 hour (AID 1224886); also: nearly all actives have a fitted effect of over 50% in size; also: potency is read from the fitted curve at half-maximal effect
# Outline: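 Nonlytic real-time viability readout: viable cells convert prosubstrate to NanoLuc substrate, giving luminescence proportional to live cell number. HEK293, 600 cells/well, compound added after 5 h, continuous culture at 37 C.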
# [2] = qHTS RealTime-Glo MT Cell Viability Assay in HEK293 cells - 8 hour (AID 1224887); also: potency is read from the fitted curve at half-maximal effect; nearly all actives have a fitted effect of over 50% in size
# Outline: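 Tox21 screen in HEK293 using RealTime-Glo MT chemistry, with cells and reagent co-dispensed. Luminescence proportional to viable cell number was captured at intervals during 40 h compound exposure at 37 C.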
# [3] = A CellTox Green Cytotoxicity Assay to monitor cytotoxicity in HEK293 cells - 16 hour (AID 1224888); also: potency is read from the fitted curve at half-maximal effect; nearly all actives have a fitted effect of over 35% in size
# Outline: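 Seeding of HEK293 cells together with cytotoxicity dye preceded a 5 h incubation at 37 C/5% CO2. Test compounds in DMSO were then added and fluorescence monitored across 40 h.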
# [4] = A CellTox Green Cytotoxicity Assay to monitor cytotoxicity in HepG2 cells - 8 hour (AID 1224890); also: potency is read from the fitted curve at half-maximal effect; nearly all actives have a fitted effect of over 45% in size
# Outline: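 Nonlytic assay: viable cells exclude the dye, so fluorescence scales with cell death. HepG2 at 600 cells/well, compounds added after 5 h, signal read across 40 h.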
# [5] = qHTS assay to identify small molecule HDAC inhibitors (AID 1259364);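 also: wild-type HCT-116 cells with endogenous class I/II HDAC activity; potency is read from the fitted curve at half-maximal effect; nearly all actives have a fitted effect of over 45% in size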
# Outline: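 Relative class I and II HDAC activity is taken from the luminogenic signal in HCT-116 cells, with compound exposure 2 hr and reagent development 30 min at room temperature.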
# [6] = qHTS assay to identify small molecule antagonists of the sonic hedgehog signaling (Shh) pathway (AID 1259369; calls by dose curve; also: nearly all actives have a fitted effect of over 45% in size; also: potency is read from the fitted curve at half-maximal effect)
# Outline: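 Conditioned medium drives Shh signalling in 3T3Gli1-Luc cells; compounds in DMSO co-applied, 24hr at 37 C, then luciferase luminescence.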
# [7] = biological target: Estrogen receptor beta (Homo sapiens) (UniProt Q92731); experiment: qHTS assay to identify small molecule agonists of the estrogen receptor beta (ER-beta) signaling pathway (AID 1259377; active = well fitted activation curve with a large enough effect in the signal ratio in the repeat runs, not every such curve was filed as active; inconclusive = weak or mixed curves, or effect the other way; the % refers to the signal ratio; also: potency is read from the fitted curve at half-maximal effect; as to activation: % is scaled to controls: 0 for no effect and ±100 for the full control effect); details: ER-beta-UAS-bla HEK293T, beta-lactamase FRET ratio, 16 h
# Outline: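 qHTS in ER-beta-UAS-bla HEK293T cells: 6 hr settling, then 16 hr compound at 37C, then LiveBLAzer substrate 2 h at RT before fluorescence reading.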
# [8] = biological target: Estrogen receptor beta (Homo sapiens) (UniProt Q92731); experiment: qHTS assay to identify small molecule antagonists of the estrogen receptor beta (ER-beta) signaling pathway (AID 1259378; active = well fitted inhibition curve with a large enough effect in the signal ratio in the repeat runs, not every such curve was filed as active; inconclusive = weak or mixed curves, or effect the other way; inactive = no such curve, though single readings can be large or run the other way; the % refers to the signal ratio; also: potency is read from the fitted curve at half-maximal effect); details: ER-beta-UAS-bla HEK293T, beta-lactamase FRET ratio, 16 h; activity, negative = inhibition: at 92.4 µM (top of the series) unless noted
# Outline: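 Antagonist mode: compounds added to beta-lactamase reporter HEK293T ER-beta-UAS cells stimulated with E2 (1nM final), 16 hr at 37C. LiveBLAzer B/G FRET substrate, 2 hours room temperature, fluorescence read-out.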
# [9] = qHTS RealTime-Glo MT Cell Viability Assay in HepG2 cells - 0 hour (AID 1224889); also: potency is read from the fitted curve at half-maximal effect; nearly all actives have a fitted effect of over 50% in size
# Outline: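 Luminescence read-out: viable HepG2 cells reduce a prosubstrate to a NanoLuc substrate, giving a signal proportional to live cell number. Reads taken at 0, 8, 16, 24, 32 and 40 h of compound exposure at 37 C.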
# [10] = qHTS assay to identify small molecule agonists of the sonic hedgehog signaling (Shh) pathway - cell viability counter screen (AID 1259366); also: % is scaled to controls: 0 for no effect and ±100 for the full control effect; nearly all actives have a fitted effect of over 50% in size
# Outline: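 Compounds in DMSO were pin-transferred onto 3T3 Gli1-Luc cells that had settled 4hr; plates then stood 24hr at 37C and 5% CO2. One hour before the end, CellTiter-Fluor was added and fluorescence recorded.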
# [11] = qHTS assay to identify small molecule antagonists of the sonic hedgehog signaling (Shh) pathway - cell viability counter screen (AID 1259367); also: potency is read from the fitted curve at half-maximal effect; nearly all actives have a fitted effect of over 55% in size
# Outline: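 Using CellTiter-Fluor, viability of Gli1-Luc reporter 3T3 cells is read by fluorescence in the wells used for the Shh luciferase assay. Treatment lasts 23 hr with conditioned medium, then reagent 1 hr at 37C.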
# [12] = qHTS assay to identify small molecule agonists of the androgen receptor (AR) signaling pathway in the presence of an antagonist - cell viability counter screen (AID 1259379); also: potency is read from the fitted curve at half-maximal effect; nearly all actives have a fitted effect of over 25% in size
# Outline: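 A CellTiter-Fluor read-out measured viability of MDA-kb2 reporter cells (MMTV promoter with AR and GR response elements). Treatment: nilutamide 3.0uM final with compounds at 15 concentrations, 16 hr, 37C, 0% CO2.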
# [13] = qHTS assay to identify small molecule antagonists of the estrogen receptor alpha (ER-alpha) signaling pathway using the BG1 cell line in the presence of 0.1 nM 17-beta-estradiol - cell viability counter screen (AID 1259241); also: nearly all actives have a fitted effect of over 40% in size; also: potency is read from the fitted curve at half-maximal effect
# Outline: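 Following 5 days in phenol red-free medium with charcoal-stripped serum, VM7Luc4E2 cells received test compounds alongside 0.1 nM 17beta-estradiol (final) at 37C for 22 hr. Live cells were then quantified via protease-substrate fluorescence.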
# [14] = qHTS assay to identify small molecule antagonists of the androgen receptor (AR) signaling pathway using the MDA cell line in the presence of 0.5 nM R1881 - cell viability counter screen (AID 1259242); also: potency is read from the fitted curve at half-maximal effect; nearly all actives have a fitted effect of over 45% in size
# Outline: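 R1881 at 0.5 nM final stimulated MDA-kb2 cells during 16 hr compound treatment at 37C. Cytotoxicity read: CellTiter-Fluor fluorescence after 30 min.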
# [15] = qHTS assay to identify small molecule HDAC inhibitors - cell viability counter screen (AID 1259365)
# Outline: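 HCT-116 wild-type, overnight attachment; 2hr drug exposure, 37C; CellTiter-Glo luminescent ATP readout after 30min RT.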
# [16] = qHTS assay to identify small molecule agonists of the sonic hedgehog signaling (Shh) pathway (AID 1259368; calls by dose curve; also: potency is read from the fitted curve at half-maximal effect; nearly all actives have a fitted effect of over 15% in size)
# Outline: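 Mouse fibroblast (NIH/3T3) reporter cells with stably integrated Gli1-Luc were treated 24 hr with compound; firefly luciferase luminescence served as the read-out.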
# [17] = biological target: Estrogen receptor (Homo sapiens) (UniProt P03372); experiment: qHTS assay to identify small molecule antagonists of the estrogen receptor alpha (ER-alpha) signaling pathway using the BG1 cell line in the presence of 0.1 nM 17-beta-estradiol (AID 1259244)
# Outline: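 VM7Luc4E2; 4xERE-luciferase; 0.1 nM E2 final; 22 h co-incubation, 37C; ONE-Glo luminescence after 30 min at room temperature.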
# [18] = activation: at 92.4 µM (top of the series) unless noted
# Tags tell the direction and shape of the fitted curve or compound fluorescence and quenching.
# Chain of UniProt Q92731 (Q92731 whole entry, looked up): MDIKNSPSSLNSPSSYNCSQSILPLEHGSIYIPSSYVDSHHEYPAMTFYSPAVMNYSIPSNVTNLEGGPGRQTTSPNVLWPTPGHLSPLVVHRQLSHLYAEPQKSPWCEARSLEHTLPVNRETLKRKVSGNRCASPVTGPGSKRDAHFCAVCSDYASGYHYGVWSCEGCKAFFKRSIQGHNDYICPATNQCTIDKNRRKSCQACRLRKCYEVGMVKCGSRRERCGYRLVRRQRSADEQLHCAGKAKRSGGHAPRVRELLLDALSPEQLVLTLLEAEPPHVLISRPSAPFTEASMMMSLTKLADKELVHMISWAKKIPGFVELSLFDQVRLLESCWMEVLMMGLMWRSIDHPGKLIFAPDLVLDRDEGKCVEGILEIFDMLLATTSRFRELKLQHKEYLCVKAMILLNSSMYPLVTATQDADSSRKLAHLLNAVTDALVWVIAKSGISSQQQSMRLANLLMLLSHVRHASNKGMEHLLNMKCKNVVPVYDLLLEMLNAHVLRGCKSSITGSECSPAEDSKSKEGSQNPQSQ
# Chain of UniProt P03372 (P03372 whole entry, looked up): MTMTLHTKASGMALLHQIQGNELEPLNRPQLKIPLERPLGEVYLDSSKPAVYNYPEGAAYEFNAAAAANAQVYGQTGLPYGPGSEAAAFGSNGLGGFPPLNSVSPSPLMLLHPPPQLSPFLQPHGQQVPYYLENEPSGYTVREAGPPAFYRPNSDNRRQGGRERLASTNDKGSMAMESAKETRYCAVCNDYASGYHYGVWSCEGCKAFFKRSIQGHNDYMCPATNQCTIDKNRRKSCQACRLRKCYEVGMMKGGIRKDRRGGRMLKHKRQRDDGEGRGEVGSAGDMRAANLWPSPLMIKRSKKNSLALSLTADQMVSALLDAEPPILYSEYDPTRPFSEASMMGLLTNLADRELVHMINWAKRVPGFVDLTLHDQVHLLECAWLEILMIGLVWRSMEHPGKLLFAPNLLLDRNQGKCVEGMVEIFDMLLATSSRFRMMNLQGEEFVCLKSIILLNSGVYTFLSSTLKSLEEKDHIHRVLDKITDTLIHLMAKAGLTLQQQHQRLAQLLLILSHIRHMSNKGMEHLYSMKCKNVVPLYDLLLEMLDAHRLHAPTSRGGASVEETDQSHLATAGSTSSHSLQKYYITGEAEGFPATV
smiles,measurement,setting,value
Oc1ccc(-c2ccccc2)cc1,Potency,[1],"inconclusive: 38.4 µM [cytotoxic, partial curve]"
same,Potency,[2],"inconclusive: 43.1 µM [cytotoxic, partial curve] and inconclusive: 19.5 µM [cytotoxic, partial curve]"
same,Potency,[3],"inconclusive: 48.3 µM [activator, single point]"
same,Potency,[4],"inconclusive: 54.9 µM [activator, single point]"
same,Potency,[5],"inconclusive: 61.1 µM [inhibitor, single point]"
same,Potency,[6],"inconclusive: 42.7 µM [inhibitor, partial curve, poor fit]"
same,Potency,[7]; [18],"inconclusive: 30.2 µM [fluorescent, partial curve, poor fit] and inconclusive: 10.9 µM [activator, full curve]"
Oc1cc(Cl)cc(Cl)c1,Potency,[1],"inconclusive: 49.5 µM [cytotoxic, single point]"
same,Potency,[2],"inconclusive: 62.3 µM [cytotoxic, partial curve, poor fit]"
same,Potency,[3],"inconclusive: 55.5 µM [activator, partial curve, poor fit]"
same,Potency,[6],"inconclusive: 19.5 µM [inhibitor, full curve]"
same,activation,[7]; [18],inconclusive: 4.09%
same,Potency,[8],"inconclusive: 27.6 µM [rising, single point]"
CCC(C)(C)c1ccc(O)cc1,Potency,[1],"inconclusive: 49 µM [cytotoxic, partial curve]"
same,Potency,[2],"inconclusive: 49 µM [cytotoxic, single point]"
same,Potency,[9],"inconclusive: 49 µM [rising, partial curve, poor fit]"
same,Potency,[10],inactive
same,Potency,[11],"inconclusive: 68.6 µM [cytotoxic, single point]"
same,Potency,[6],"inconclusive: 550 nM [inhibitor, single point] and inconclusive: 68.6 µM [inhibitor, single point]"
same,Potency,[7]; [18],inconclusive: 21.9 µM [activator]
same,activation,[7]; at 42.5 µM (top of the series),inconclusive: 8.36%
same,activation,[7]; at 92.4 µM (top of the series),inconclusive: 12.7%
same,Potency,[12],"inconclusive: 2.73 µM [cytotoxic, single point]"
N#Cc1c(Cl)c(Cl)c(Cl)c(C#N)c1Cl,Potency,[1],active: 2.15 µM and active: 1.23 µM
same,Potency,[3],active: 12.1 µM and active: 8.71 µM
same,Potency,[4],active: 48 µM and active: 13.8 µM
same,Potency,[13],"inconclusive: 12 µM [cytotoxic, partial curve] and inconclusive: 19.3 µM [cytotoxic, partial curve]"
same,Potency,[14],active: 16.9 µM and active: 13.7 µM
same,Potency,[15],"inconclusive: 19 µM [rising, partial curve]"
same,Potency,[11],active: 2.39 µM and active: 6.86 µM
same,Potency,[16],active: 673 nM and active: 969 nM
same,Potency,[6],"inconclusive: 1.09 µM [inhibitor, full curve, poor fit]"
same,Potency,[8],active: 3.78 µM and inconclusive: 6.11 µM [full curve]
Oc1ccc(C2(c3ccc(O)cc3)CCCCC2)cc1,Potency,[1],"inconclusive: 46.4 µM [cytotoxic, single point]"
same,Potency,[2],"inconclusive: 52.1 µM [cytotoxic, single point]"
same,Potency,[3],"inconclusive: 46.4 µM [activator, single point]"
same,Potency,[17],"inconclusive: 65 µM [inhibitor, single point]"
same,Potency,[7]; [18],"inconclusive: 72.9 µM [falling, partial curve, poor fit]"
same,Potency,[8],"inconclusive: 72.9 µM [cytotoxic, partial curve, poor fit]"
COc1ccc(/C(=C/C(=O)N2CCOCC2)c2ccc(Cl)cc2)cc1OC,Potency,[1],"inconclusive: 27.5 µM [cytotoxic, partial curve]"
same,Potency,[2],"inconclusive: 17.4 µM [cytotoxic, partial curve, poor fit]"
same,Potency,[9],"inconclusive: 49 µM [cytotoxic, partial curve, poor fit]"
same,Potency,[11],"inconclusive: 48.6 µM [cytotoxic, partial curve]"
same,Potency,[6],"inconclusive: 0.109 µM [inhibitor, full curve, poor fit]"
CC(C)[C@H](C(=O)O[C@H](C#N)c1cccc(Oc2ccccc2)c1)c1ccc(Cl)cc1,Potency,[1],"inconclusive: 61.6 µM [cytotoxic, single point]"
same,Potency,[2],"inconclusive: 54.9 µM [cytotoxic, single point]"
same,Potency,[13],inactive
same,Potency,[6],"inconclusive: 54.4 µM [inhibitor, partial curve]"
same,activation,[7]; [18],inconclusive: 1.86%
CCOP(=S)(OCC)O/N=C(\C#N)c1ccccc1,Potency,[1],inactive
same,Potency,[3],"inconclusive: 43.6 µM [activator, single point]"
same,Potency,[9],"inconclusive: 49 µM [cytotoxic, partial curve, poor fit]"
same,Potency,[10],inactive
same,Potency,[6],inactive
same,Potency,[7]; [18],inactive
